Data on nine variants can be found in the supplement of paper PMC12217912.

Sequences and labels used below:
B1: TEV protease; numbered along this chain (parent)
chain: MGESLFKGPRDYNPISSSICHLTNESDGHTTSLYGIGFGPFIITNKHLFRRNNGTLVVQSLHGVFKVKDTTTLQQHLVDGRDMIIIRMPKDFPPFPQKLKFREPQREERICLVTTNFQTKSMSSMVSDTSCTFPSGDGIFWKHWIQTKDGQCGSPLVSTRDGFIVGIHSASNFTNTNNYFTSVPKNFMELLTNQEAQQWVSGWRLNADSVLWGGHKVFMVKPEEPFQPVKEATQL

The variants in this experiment derive from B1. Nature of the experiment: raw area under fraction-flipped curve 0-4 h after induction (AUC4h, not background-subtracted), DNA-recorder readout of cleavage of the substrate (dimensionless); higher = more cleavage of the substrate by the protease variant. To be noted: temperature: 34 °C; time window: 0-4 h after rhamnose induction. The protocol:
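In vivo DNA recorder in E. coli TOP10(DE3) ΔrhaA at 34 °C. Each TEVp single-site mutant (parent TEVp 0) is paired with a single-site variant of the 7-mer TEVs (canonical ENLYFQ|S). The substrate sits between flexible linkers in a Bxb1-sfGFP-TEVs-SsrA fusion, so cleavage stabilises Bxb1 and speeds flipping of a recombination array, read by NGS. The value is the raw area under the fraction-flipped curve over 0-4 h after rhamnose induction (AUC4h), with ≥20 reads per time point. It is not background-subtracted; inactive controls average about 0.047.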

The list shows a part of the results. The full chains were built here from the parent and the listed change. Values near 0.05 are background.
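Further: Bxb1 expression induced with 0.2% (w/v) L-rhamnose at OD600 near 0.5, cultures sampled hourly, flipped fraction per protease–substrate barcode pair counted by paired-end Illumina sequencing.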

In the case of MGESLFKGPRDYNPISSSICHLTNESDGHTTSLYGIGFGPFIITNKHLFRRNNGTLVVQSLHGVFKVKDTTTLVQHLVDGRDMIIIRMPKDFPPFPQKLKFREPQREERICLVTTNFQTKSMSSMVSDTSCTFPSGDGIFWKHWIQTKDGQCGSPLVSTRDGFIVGIHSASNFTNTNNYFTSVPKNFMELLTNQEAQQWVSGWRLNADSVLWGGHKVFMVKPEEPFQPVKEATQL [Q74V], the “area with substrate ENAYFQS” value was 0.047, the “area with substrate ENCYFQS” value stood at 0.0979, the “area with substrate ENDYFQS” value is 0.0691 and the “area with substrate ENEYFQS” value is 0.0592. In addition, the “area with substrate ENFYFQS” value was 0.0587, the “area with substrate ENHYFQS” value is 0.0512, the “area with substrate ENNYFQS” value turned out to be 0.0586 and the “area with substrate ENPYFQS” value is 0.0657. Moreover, the “area with substrate ENQYFQS” value was found to be 0.0694, the “area with substrate ENRYFQS” value was found to be 0.0561, the “area with substrate ENSYFQS” value is 0.0691 and the “area with substrate ENTYFQS” value amounted to 0.0586. In addition, the “area with substrate ENVYFQS” value turned out to be 0.0542 and the “area with substrate ENYYFQS” value was 0.0553.

MGESLFKGPRDYNPISSSICHLTNESDGHTTSLYGIGFGPFIITNKHLFRRNNGTLVVQSLHGVFKVKDTTTPQQHLVDGRDMIIIRMPKDFPPFPQKLKFREPQREERICLVTTNFQTKSMSSMVSDTSCTFPSGDGIFWKHWIQTKDGQCGSPLVSTRDGFIVGIHSASNFTNTNNYFTSVPKNFMELLTNQEAQQWVSGWRLNADSVLWGGHKVFMVKPEEPFQPVKEATQL [L73P]: the “area with substrate ENAYFQS” value stood at 0.0572, the “area with substrate ENDYFQS” value amounted to 0.0638, the “area with substrate ENEYFQS” value stood at 0.0668 and the “area with substrate ENGYFQS” value came out at 0.0554. Further, the “area with substrate ENHYFQS” value is 0.0561, the “area with substrate ENKYFQS” value turned out to be 0.0514, the “area with substrate ENNYFQS” value was 0.0429 and the “area with substrate ENQYFQS” value is 0.0638. Also, the “area with substrate ENRYFQS” value is 0.0248, the “area with substrate ENTYFQS” value was 0.0615, the “area with substrate ENVYFQS” value was 0.0423 and the “area with substrate ENWYFQS” value turned out to be 0.0328.

With MGESLFKGPRDYNPISSSICHLTNESDGHTTSLYGIGFGPFIITNKHLFRRNNGTLVVQSLHGVFKVKDTTTYQQHLVDGRDMIIIRMPKDFPPFPQKLKFREPQREERICLVTTNFQTKSMSSMVSDTSCTFPSGDGIFWKHWIQTKDGQCGSPLVSTRDGFIVGIHSASNFTNTNNYFTSVPKNFMELLTNQEAQQWVSGWRLNADSVLWGGHKVFMVKPEEPFQPVKEATQL [L73Y], the “area with substrate ENAYFQS” value amounted to 0.0627, the “area with substrate ENCYFQS” value is 0.0519, the “area with substrate ENDYFQS” value came out at 0.0561 and the “area with substrate ENEYFQS” value amounted to 0.055. Besides, the “area with substrate ENFYFQS” value amounted to 0.0507, the “area with substrate ENGYFQS” value worked out at 0.0507, the “area with substrate ENHYFQS” value was found to be 0.0539 and the “area with substrate ENIYFQS” value came to 0.0678. For the same variant, the “area with substrate ENKYFQS” value is 0.0657, the “area with substrate ENMYFQS” value came to 0.0558, the “area with substrate ENNYFQS” value came to 0.0588 and the “area with substrate ENQYFQS” value came out at 0.0568. Moreover, the “area with substrate ENSYFQS” value turned out to be 0.0464, the “area with substrate ENTYFQS” value turned out to be 0.0509, the “area with substrate ENVYFQS” value was 0.0526 and the “area with substrate ENYYFQS” value was 0.0466.

On to MGESLFKGPRDYNPISSSICHLTNESDGHTTSLYGIGFGPFIITNKHLFRRNNGTLVVQSLHGVFKVKWTTTLQQHLVDGRDMIIIRMPKDFPPFPQKLKFREPQREERICLVTTNFQTKSMSSMVSDTSCTFPSGDGIFWKHWIQTKDGQCGSPLVSTRDGFIVGIHSASNFTNTNNYFTSVPKNFMELLTNQEAQQWVSGWRLNADSVLWGGHKVFMVKPEEPFQPVKEATQL [D69W], for which the “area with substrate ENAYFQS” value came to 0.0547, the “area with substrate ENCYFQS” value came to 0.0684, the “area with substrate ENEYFQS” value was 0.0581 and the “area with substrate ENHYFQS” value was 0.0653. For the same variant, the “area with substrate ENNYFQS” value is 0.0609, the “area with substrate ENQYFQS” value was 0.0508, the “area with substrate ENRYFQS” value turned out to be 0.0629 and the “area with substrate ENSYFQS” value was 0.0698. Further, the “area with substrate ENTYFQS” value turned out to be 0.0282, the “area with substrate ENVYFQS” value is 0.0704, the “area with substrate ENWYFQS” value turned out to be 0.0025 and the “area with substrate ENYYFQS” value is 0.0531.

On to MGESLFKGPRDYNPISSSICHLTNESDGHTTSLYGIGFGPFIITNKHLFRRNNGTLVVQSLHGVFKVKLTTTLQQHLVDGRDMIIIRMPKDFPPFPQKLKFREPQREERICLVTTNFQTKSMSSMVSDTSCTFPSGDGIFWKHWIQTKDGQCGSPLVSTRDGFIVGIHSASNFTNTNNYFTSVPKNFMELLTNQEAQQWVSGWRLNADSVLWGGHKVFMVKPEEPFQPVKEATQL [D69L], for which the “area with substrate ENAYFQS” value came out at 0.0574, the “area with substrate ENCYFQS” value stood at 0.0671, the “area with substrate ENEYFQS” value came out at 0.0553 and the “area with substrate ENFYFQS” value was 0.0632. Besides, the “area with substrate ENGYFQS” value was determined as 0.0574, the “area with substrate ENHYFQS” value worked out at 0.043, the “area with substrate ENIYFQS” value was found to be 0.0824 and the “area with substrate ENKYFQS” value was 0.0473. In addition, the “area with substrate ENNYFQS” value came out at 0.0717, the “area with substrate ENPYFQS” value worked out at 0.0668, the “area with substrate ENQYFQS” value worked out at 0.0614 and the “area with substrate ENRYFQS” value is 0.0659. Further, the “area with substrate ENSYFQS” value was 0.0601, the “area with substrate ENTYFQS” value is 0.0687, the “area with substrate ENVYFQS” value came to 0.0663 and the “area with substrate ENWYFQS” value turned out to be 0.0718. Further, the “area with substrate ENYYFQS” value amounted to 0.0612.

On to MGESLFKGPRDYNPISSSICHLTNESDGHTTSLYGIGFGPFIITNKHLFRRNNGTLVVQSLHGVFKVKDSTTLQQHLVDGRDMIIIRMPKDFPPFPQKLKFREPQREERICLVTTNFQTKSMSSMVSDTSCTFPSGDGIFWKHWIQTKDGQCGSPLVSTRDGFIVGIHSASNFTNTNNYFTSVPKNFMELLTNQEAQQWVSGWRLNADSVLWGGHKVFMVKPEEPFQPVKEATQL [T70S], for which the “area with substrate ENAYFQS” value amounted to 0.0461, the “area with substrate ENCYFQS” value is 0.0692, the “area with substrate ENDYFQS” value turned out to be 0.0638 and the “area with substrate ENFYFQS” value was 0.0574. In addition, the “area with substrate ENGYFQS” value was determined as 0.0533, the “area with substrate ENHYFQS” value was 0.0637, the “area with substrate ENIYFQS” value is 0.105 and the “area with substrate ENKYFQS” value was 0.0663. The “area with substrate ENMYFQS” value came out at 0.082, the “area with substrate ENNYFQS” value was 0.0672, the “area with substrate ENPYFQS” value is 0.0529 and the “area with substrate ENQYFQS” value was 0.0879. The “area with substrate ENRYFQS” value was 0.0514, the “area with substrate ENSYFQS” value is 0.0652, the “area with substrate ENTYFQS” value came out at 0.067 and the “area with substrate ENVYFQS” value was 0.0758. Moreover, the “area with substrate ENWYFQS” value was 0.0371.

Consider MGESLFKGPRDYNPISSSICHLTNESDGHTTSLYGIGFGPFIITNKHLFRRNNGTLVVQSLHGVFKVKDTWTLQQHLVDGRDMIIIRMPKDFPPFPQKLKFREPQREERICLVTTNFQTKSMSSMVSDTSCTFPSGDGIFWKHWIQTKDGQCGSPLVSTRDGFIVGIHSASNFTNTNNYFTSVPKNFMELLTNQEAQQWVSGWRLNADSVLWGGHKVFMVKPEEPFQPVKEATQL [T71W], for which the “area with substrate ENAYFQS” value was found to be 0.0914, the “area with substrate ENEYFQS” value turned out to be 0.0547, the “area with substrate ENFYFQS” value turned out to be 0.0546 and the “area with substrate ENHYFQS” value amounted to 0.0611. Besides, the “area with substrate ENIYFQS” value worked out at 0.0968, the “area with substrate ENNYFQS” value was 0.0682, the “area with substrate ENPYFQS” value is 0.105 and the “area with substrate ENQYFQS” value is 0.0636. The “area with substrate ENSYFQS” value worked out at 0.0473, the “area with substrate ENVYFQS” value came to 0.064, the “area with substrate ENWYFQS” value came to 0.0545 and the “area with substrate ENYYFQS” value came to 0.0547.

As for MGESLFKGPRDYNPISSSICHLTNESDGHTTSLYGIGFGPFIITNKHLFRRNNGTLVVQSLHGVFKVKDTLTLQQHLVDGRDMIIIRMPKDFPPFPQKLKFREPQREERICLVTTNFQTKSMSSMVSDTSCTFPSGDGIFWKHWIQTKDGQCGSPLVSTRDGFIVGIHSASNFTNTNNYFTSVPKNFMELLTNQEAQQWVSGWRLNADSVLWGGHKVFMVKPEEPFQPVKEATQL [T71L], the “area with substrate ENAYFQS” value came to 0.0652, the “area with substrate ENDYFQS” value came to 0.0701, the “area with substrate ENEYFQS” value is 0.0544 and the “area with substrate ENFYFQS” value is 0.0491. In addition, the “area with substrate ENGYFQS” value was 0.0697, the “area with substrate ENIYFQS” value turned out to be 0.071, the “area with substrate ENMYFQS” value was 0.0683 and the “area with substrate ENNYFQS” value came to 0.0457. Further, the “area with substrate ENQYFQS” value was 0.0502, the “area with substrate ENRYFQS” value was 0.0667, the “area with substrate ENTYFQS” value worked out at 0.0448 and the “area with substrate ENVYFQS” value was 0.073. The “area with substrate ENWYFQS” value was found to be 0.0553.

MGESLFKGPRDYNPISSSICHLTNESDGHTTSLYGIGFGPFIITNKHLFRRNNGTLVVQSLHGVFKVKDTCTLQQHLVDGRDMIIIRMPKDFPPFPQKLKFREPQREERICLVTTNFQTKSMSSMVSDTSCTFPSGDGIFWKHWIQTKDGQCGSPLVSTRDGFIVGIHSASNFTNTNNYFTSVPKNFMELLTNQEAQQWVSGWRLNADSVLWGGHKVFMVKPEEPFQPVKEATQL [T71C]: the “area with substrate ENAYFQS” value is 0.052, the “area with substrate ENDYFQS” value stood at 0.0666, the “area with substrate ENEYFQS” value was found to be 0.0605 and the “area with substrate ENHYFQS” value was determined as 0.0654. For the same variant, the “area with substrate ENIYFQS” value was 0.0948, the “area with substrate ENMYFQS” value is 0.0846, the “area with substrate ENPYFQS” value worked out at 0.0614 and the “area with substrate ENQYFQS” value was determined as 0.0534. For the same variant, the “area with substrate ENRYFQS” value was found to be 0.047, the “area with substrate ENSYFQS” value was 0.0454, the “area with substrate ENTYFQS” value turned out to be 0.0576 and the “area with substrate ENVYFQS” value was 0.0652. For the same variant, the “area with substrate ENWYFQS” value came out at 0.004.
